The text below walks through data of PubChem BioAssay AID651567 (National Center for Advancing Translational Sciences (NCATS), 2012).

The whole screen tested about 1,200 compounds, of which about 10 (0.8%) were called active. About 4% were inconclusive and are not listed. The call rests on the fitted dose curve; in most records, active means well fitted inhibition curve with a large enough effect; inconclusive means small, poorly fitted or top-dose-only effect; inactive means no such curve, though single readings can be large or run the other way. The list shows a part of the results.
On the % scale 0 is the no-effect control and ±100 the full control effect; potency means the concentration at half of the fitted maximal effect.

The experiment can be described thus: qHTS Assay to Find Inhibitors of Chronic Active B-Cell Receptor Signaling: Hit Validation in OCI-Ly3 Assay. Particulars: OCI-Ly3 IkB-luciferase reporter, Chroma-Glo luminescence, 4 h; series mostly up to 46.1 µM; activity change, negative = inhibition: at the top concentration. The gist of the method:
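OCI-Ly3 cells in IMDM with 0.5% FBS get compound plus 80ng/ml doxycycline (dispensed solution), 4 hrs at 37C. Chroma-Glo read of green IkB-luc and red unfused luc; green/red ratio normalized to basal (0%) and 10 uM MG-132 (100%); concentration-response curves for each signal.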
For orientation: In qHTS, concentration-response curves come from the screen itself.
As to `COc1cc2c(cc1OC)-c1cc(NC3CCCC3)nc(=O)n1CC2`, the “activity change, negative = inhibition” value was inactive: -0.848%.

`COC(=O)c1cc(C(=O)N2CCN(c3cccc(Cl)c3)CC2)cc([N+](=O)[O-])c1`: the “activity change, negative = inhibition” value is inactive: -3.03%.

`Cc1cc(C(N)=O)nn1-c1c(Cl)cc(Cl)cc1Cl`: the “activity change, negative = inhibition” value is inactive: -0.427%.

Take `CCOc1ccc(S(=O)(=O)Nc2cc(OC)ccc2OC)cc1`: the “activity change, negative = inhibition” value was inactive: -2.95%.

As for `COc1cccc(N2CCN(C(=O)c3ccc(CS(=O)c4ccc(Cl)cc4)o3)CC2)c1` (stereo unspecified), the “activity change, negative = inhibition” value was inactive: -2.77%.

Consider `COc1ccccc1NC(=O)c1c(N=Cc2c(O)ccc3ccccc23)cnn1C`, for which the “activity change, negative = inhibition” value was inactive: -2.72%.

Regarding `COc1ccc(C2CC(c3c(O)cc(C)oc3=O)=NCCS2)c(OC)c1` (stereo unspecified), the “activity change, negative = inhibition” value is inactive: -3.45%.

For the compound `COc1cc(Nc2c3c(nc4ccccc24)CCC3)cc(OC)c1OC`, the “activity change, negative = inhibition” value was inactive: -6.46%.

As for `Oc1ccccc1-n1c(-c2ccccc2)ccc1-c1ccccc1`, the “activity change, negative = inhibition” value is inactive: -1.51%.

For `COc1cc(C(=O)N/N=C/C2CC=CCC2)cc(OC)c1OC` (stereo unspecified), the “activity change, negative = inhibition” value is inactive: -1.17%.

Take `Cc1cc(C)c2nc(C(F)(F)F)nc(NCCCN3CCOCC3)c2c1`: the “activity change, negative = inhibition” value is inactive: -0.777%.

For the compound `COc1ccc(C2=Nn3c(nnc3-c3ccc(OC)cc3)SC2)cc1`, the “activity change, negative = inhibition” value was inactive: -4.92%.

With `C=CCNC(=S)N/N=C/c1cn(C)c2ccccc12`, the “activity change, negative = inhibition” value was inactive: -0.555%.

`Cc1ccccc1Nc1nc(N)nc(COC(=O)c2cccc(S(=O)(=O)N(C)C)c2)n1`: the “activity change, negative = inhibition” value is inactive: -0.606%.

Regarding `CCc1cc2c(SCC(=O)Nc3ccc(NC(C)=O)cc3)ncnc2s1`, the “activity change, negative = inhibition” value was inactive: -0.445%.

With `CN(CC(=O)Nc1ccc2c(c1)OCCO2)Cc1nc2ccccc2c(=O)[nH]1`, the “activity change, negative = inhibition” value was inactive: -0.289%.

As to `CCN(CC)c1ccc2cc(-c3nc4ccccc4n3C)c(=O)oc2c1`, the “activity change, negative = inhibition” value was inactive: -1.04%.

`COc1cc(C(=O)O/N=C(\N)c2ccc([N+](=O)[O-])cc2)cc(OC)c1OC`: the “activity change, negative = inhibition” value was inactive: -0.586%.

Regarding `COc1cc(OC)cc(C(=O)N[C@H](C(=O)Nc2nc3ccccc3[nH]2)C(C)C)c1`, the “activity change, negative = inhibition” value is inactive: -2.01%.

As for `Cc1ccc(C)c(Cn2c(=O)n(-c3ccc(CC(=O)NCc4ccco4)cc3)c(=O)c3sccc32)c1`, the “activity change, negative = inhibition” value is inactive: -0.0393%.

As to `COc1cc2c(c(OC)c1OC)-c1ccc(OC)c(=O)cc1[C@@H](N(C)CC#CCO)CC2`, the “activity change, negative = inhibition” value is inactive: -1.53%.

Consider `O=C(Nc1ccc(N2CCCC2)cc1)c1cc(Cl)ccc1Cl`, for which the “activity change, negative = inhibition” value is inactive: -1.28%.

Turning to `O=C(CSc1cccc[n+]1[O-])CSc1cccc[n+]1[O-]`, the “activity change, negative = inhibition” value was inactive: -1.14%.

Regarding `N#CCCn1cc(/C=N/NC(N)=S)c(-c2ccc(Br)cc2)n1`, the “activity change, negative = inhibition” value is inactive: -1.51%.

As to `O=C(NN=C1CCCC1)c1n[nH]c2c1CCC2`, the “activity change, negative = inhibition” value is inactive: 0.023%.

Consider `COc1cc(C(=O)NCc2cc(C)nc3ccccc23)cc(OC)c1OC`, for which the “activity change, negative = inhibition” value is inactive: -1.47%.

As for `NC(=O)NC[C@@H]1CC[C@@H](Cc2ccc(-c3ccccc3)cc2)O1`, the “activity change, negative = inhibition” value is inactive: -0.286%.

Regarding `Cc1[nH]n(C(N)=S)c(=O)c1N=Nc1cccc(Cl)c1`, the Potency was active: 20.6 µM.

In the case of `CCNC(=O)[C@H]1O[C@@H](n2cnc3c(N)nc(NCCc4ccc(CCC(=O)O)cc4)nc32)[C@H](O)[C@@H]1O`, the “activity change, negative = inhibition” value was inactive: -0.664%.

With `CCC(C)NC(=O)c1ccccc1NC(=O)c1ccc(CSc2ccccc2)cc1` (stereo unspecified), the “activity change, negative = inhibition” value is inactive: 0.779%.

As to `CC1=NN(C(N)=S)C(=O)C1N=Nc1ccc(C)c(Br)c1` (stereo unspecified), the “activity change, negative = inhibition” value is inactive: -3.08%.

Consider `COc1cc(NC(=O)CSc2nc3[nH]ncc3c(=O)n2-c2ccccc2C)cc(OC)c1OC`, for which the “activity change, negative = inhibition” value was inactive: -0.526%.

In the case of `CC1=CC(C)(C)N(S(=O)(=O)c2ccc(C)cc2)c2ccccc21`, the “activity change, negative = inhibition” value was inactive: -3.65%.

As to `C=CCn1c(O)c(N=NC(=S)Nc2ccccc2F)c2cc(S(=O)(=O)N3CCOCC3)ccc21`, the “activity change, negative = inhibition” value was inactive: -11%.

Consider `COC(=O)c1ccc(C)c(NS(=O)(=O)c2ccc3c(c2)OCCO3)c1`, for which the “activity change, negative = inhibition” value is inactive: -3.3%.

Regarding `NC(=S)N=Nc1c(O)n(Cc2ccc(Br)cc2)c2ccccc12`, the “activity change, negative = inhibition” value is inactive: -6.42%.

Consider `CN(C(=O)c1ccc(-c2nn(C)c(=O)c3ccccc23)cc1)C1CCCCC1`, for which the “activity change, negative = inhibition” value is inactive: -0.996%.

Turning to `Cc1noc(C)c1CSc1ncnc2ccccc12`, the “activity change, negative = inhibition” value is inactive: -0.785%.

As to `CS(=O)(=O)C1=C(O)C(=O)N(c2ccccc2)C1c1ccccc1` (stereo unspecified), the “activity change, negative = inhibition” value was inactive: -0.401%.

Take `COc1c(Cl)cc(C(=O)NN)cc1Cl`: the “activity change, negative = inhibition” value was inactive: -0.427%.

Take `C=CCN(C(=O)CSC1=NC(=O)CN1C(C)=O)c1nc(C)c(-c2ccccc2)s1`: the “activity change, negative = inhibition” value was inactive: -0.952%.

In the case of `COc1ccc(C2=NC(C)(C)Cc3cc(OC)c(OC)cc32)cc1OC`, the “activity change, negative = inhibition” value was inactive: 0.417%.

In the case of `COc1ccc(CCNC(=O)Cn2c(=O)cnc3ccccc32)cc1`, the “activity change, negative = inhibition” value was inactive: -0.695%.

Regarding `CCN(CC)c1ccc(NC(=O)CN2CCN(CC(=O)Nc3ccccc3F)CC2)cc1`, the “activity change, negative = inhibition” value was inactive: -1.99%.

As for `CCOC(=O)COc1cccc2c(=O)n(CC(=O)NCc3ccccc3)ccc12`, the “activity change, negative = inhibition” value was inactive: -1.42%.

Regarding `Cc1cccc(C)c1NC(=O)CNC(=O)CNC(=O)Cc1cccc2ccccc12`, the “activity change, negative = inhibition” value was inactive: -0.0296%.

For the compound `COc1cc2c(cc1OC)C(c1ccc(OC)c(OC)c1OC)CC(=O)N2` (stereo unspecified), the “activity change, negative = inhibition” value was inactive: -0.252%.

With `C/C(=N\N1C(=O)c2ccccc2NC1c1ccco1)c1ccccc1O` (stereo unspecified), the “activity change, negative = inhibition” value was inactive: -0.879%.

With `CCOc1cc(-c2nnc(SCC(=O)NCc3ccccc3)nc2-c2ccc(OC)c(OCC)c2)ccc1OC`, the “activity change, negative = inhibition” value is inactive: -3.71%.

With `COC(=O)c1ccc(C)c(NS(=O)(=O)c2ccc(OC)cc2)c1`, the “activity change, negative = inhibition” value was inactive: -4.42%.

Turning to `Oc1[nH]c2ccc(Br)cc2c1N=NC(=S)Nc1ccc(F)cc1`, the “activity change, negative = inhibition” value was inactive: -1.74%.

Consider `COc1ccc(N2CC(C(=O)N3CCC(c4nc5ccccc5[nH]4)CC3)CC2=O)cc1` (stereo unspecified), for which the “activity change, negative = inhibition” value was inactive: 0.0151%.

Turning to `CCOc1ccc2nc(N3C(=O)CNC3=S)sc2c1`, the “activity change, negative = inhibition” value is inactive: 23.2%.

Take `COc1ccc(/C=C/C(=O)c2cc(F)ccc2OC(=O)c2ccccc2OC)cc1OC`: the “activity change, negative = inhibition” value was inactive: -23%.

In the case of `COC(=O)COc1cccc2c(=O)n(CC(=O)NCc3ccccc3)ccc12`, the “activity change, negative = inhibition” value is inactive: -0.758%.

As for `CCOC(=O)c1ccc(NC(=S)NNC(C)(C)C)cc1`, the “activity change, negative = inhibition” value is inactive: -0.0435%.

Turning to `CCOC(=O)C1=C(O)c2ccccc2C(=O)/C1=C\c1ccc(CC)cc1`, the “activity change, negative = inhibition” value was inactive: -7.74%.

For `O=c1cnnc(N/N=C/C2CC=CCC2)[nH]1` (stereo unspecified), the “activity change, negative = inhibition” value is inactive: -0.849%.

In the case of `CN(C)/C=N/c1sc2c(c1C#N)CCCC2`, the “activity change, negative = inhibition” value was inactive: -0.499%.

On to `COc1ccc(NC(=O)Cn2nnc(-c3ccccc3NS(=O)(=O)c3ccc(OC)cc3)n2)cc1`, for which the “activity change, negative = inhibition” value is inactive: -0.428%.

Turning to `CCOC(=O)c1cnc(Nc2nc3ccccc3o2)nc1CSC(=S)N(CC)CC`, the “activity change, negative = inhibition” value is inactive: -1.67%.

On to `CCOc1ccc(Cl)cc1C1=CC(=O)C[C@H](c2ccc(OC)cc2)C1`, for which the “activity change, negative = inhibition” value is inactive: -4.37%.

On to `C[C@@H]1C[C@H]2[C@@H]3C[C@H](F)C4=CC(=O)C=C[C@]4(C)[C@@]3(F)[C@@H](O)C[C@]2(C)[C@@]1(O)C(=O)CO`, for which the “activity change, negative = inhibition” value was inactive: -2.4%.

Turning to `O=C1OCC2=C1C(c1ccc(F)cc1)c1cc3c(cc1N2)OCO3` (stereo unspecified), the “activity change, negative = inhibition” value was inactive: -4.57%.

Take `CC(C)(C)c1ccc(C(=O)CCC(=O)NCc2ccccc2)cc1`: the “activity change, negative = inhibition” value was inactive: -0.465%.

`CCCNc1nc(-c2ccccc2)c(C(=O)OCC)cc1C#N`: the “activity change, negative = inhibition” value is inactive: -1.65%.
